From patent US12116397B2, “IL-IR-I binding polypeptide” (Swedish Orphan Biovitrum AB (publ), priority 2017, dated 2024)
Where two headings read alike, the source gives them in different places.

How the values were obtained:
hIL-1R-I = target: T1, hIL-1R-I (Homo sapiens, UniProt P14778); experiment: Biacore affinity/kinetic analysis of His6-tagged Z variants, human IL-1R-I; type: binding
T1 construct: purchased R&D Systems 269-1R/CF
T1 sequence (P14778 18-569): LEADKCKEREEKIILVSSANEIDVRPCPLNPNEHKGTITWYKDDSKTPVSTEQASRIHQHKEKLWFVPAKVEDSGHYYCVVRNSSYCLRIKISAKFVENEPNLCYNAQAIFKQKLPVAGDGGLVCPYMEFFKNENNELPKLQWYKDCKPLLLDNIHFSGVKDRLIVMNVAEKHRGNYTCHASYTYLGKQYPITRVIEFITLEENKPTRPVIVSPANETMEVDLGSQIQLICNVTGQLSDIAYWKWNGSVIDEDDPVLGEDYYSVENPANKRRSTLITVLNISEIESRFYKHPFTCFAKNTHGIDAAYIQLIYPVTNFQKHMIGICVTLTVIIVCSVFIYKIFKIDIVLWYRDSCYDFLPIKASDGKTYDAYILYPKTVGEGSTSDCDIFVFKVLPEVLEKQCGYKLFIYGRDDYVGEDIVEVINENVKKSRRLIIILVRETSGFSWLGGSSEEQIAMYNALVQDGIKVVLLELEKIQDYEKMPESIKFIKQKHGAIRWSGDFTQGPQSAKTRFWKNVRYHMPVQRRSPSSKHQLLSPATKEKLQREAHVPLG
Procedure: Affinities (KD) for human and cynomolgus IL-1R-I were determined for His6-tagged Z variants using a Biacore 2000 instrument (GE Healthcare). hIL-1R-I or cIL-1R-I-His6 was immobilized on the carboxylated dextran layer in different flow cells of a CM5 chip (GE Healthcare, cat. no. BR100012). The immobilization was performed using amine coupling chemistry according to the manufacturer's protocol. Acetate pH 4.5 (GE Healthcare, cat. no. BR100350) was used for ligand dilution and HBS-EP (GE Healthcare, cat. no. BR100188) was used as running buffer. One flow cell surface on the chip was activated and deactivated for use as blank during analyte injections. In the kinetic experiment, HBS-EP was used as running buffer, the flow rate was 50 μl/min and the temperature was 25° C. The analytes, i.e. the Z variants, were each diluted in HBS-EP buffer to final concentrations of 40 nM and 10 nM, and were injected over the target chip surfaces for 2 min, followed by dissociation in running buffer for 8 min. Kinetic constants were calculated from the obtained sensorgrams using a 1:1 binding model, in the BiaEvaluation software 4.1 (GE Healthcare).
The kinetic constants (kon and koff) and affinities (KD) for human and cynomolgus IL-1R-I were determined for His6-tagged Z variants using a Biacore 2000 instrument (GE Healthcare). The experiment was run essentially as described in Example 2, using 100, 10 and 1 nM of the Z variants. The analyte injection time was 3 min followed by 15 min dissociation and 2×5 s glycine pH 3.0 (GE Healthcare, cat. no. BR100357), supplemented with 0.5 M NaCl, was used for regeneration of the surfaces between the cycles. Kinetic constants were calculated from the obtained sensorgrams of two or three concentrations of the respective Z variant, using a 1:1 binding model in the BiaEvaluation software 4.1 (GE Healthcare). His6-tagged Z12967 was included in the assay for comparison.
The kinetic constants (kon and koff) and affinities (KD) for human and cynomolgus IL-1R-I were determined for His6-tagged Z variants using a Biacore 2000 instrument (GE Healthcare). The experiment was run essentially as described in Example 5, using 48, 12, 3 and 0.75 nM of the Z variants. The analyte injection time was 3 min followed by 6 min dissociation and 2×5 s glycine pH 3.0, supplemented with 0.5 M NaCl, was used for regeneration of the surfaces between the cycles. Kinetic constants were calculated from the obtained sensorgrams of three or four concentrations of the respective Z variant, using a 1:1 binding model in the BiaEvaluation software 4.1 (GE Healthcare). His6-tagged Z12967 (SEQ ID NO:9), Z16065 (SEQ ID NO:268), Z16163 (SEQ ID NO:359) and Z18557 (SEQ ID NO:1205) were included in the assay for comparison.

[1] = Circular dichroism (CD) spectroscopy analysis, melting temperature and refolding; type: physicochemical; details: His6-tagged Z variants, CD variable temperature measurement
Procedure: Purified His6-tagged Z variants were diluted to 0.5 mg/ml in PBS. For each diluted Z variant, a CD spectrum at 250-195 nm was obtained at 20° C. In addition, a variable temperature measurement (VTM) was performed to determine the melting temperature (Tm). In the VTM, the absorbance was measured at 221 nm while the temperature was raised from 20 to 90° C., with a temperature slope of 5° C./min. A new CD spectrum was obtained at 20° C. after the heating procedure in order to study the refolding ability of the Z variants. The CD measurements were performed on a Jasco J-810 spectropolarimeter (Jasco Scandinavia AB) using a cell with an optical path length of 1 mm.
CD was analyzed for His6-tagged Z variants, as described in Example 2.

hIL-1R-I-Fc = target: T2, hIL-1R-I-Fc (Homo sapiens, UniProt P14778); experiment: EC50 analysis of Z variants by ELISA target titration; type: binding; details: periplasmic Z-ABD; hIL-1R-I-Fc 100 to 0.01 nM; first matured library (Example 4)
T2 construct: purchased Creative BioMart IL1 RI-771H
T2 sequence (P14778 with tags, fused parts or gaps limits assumed): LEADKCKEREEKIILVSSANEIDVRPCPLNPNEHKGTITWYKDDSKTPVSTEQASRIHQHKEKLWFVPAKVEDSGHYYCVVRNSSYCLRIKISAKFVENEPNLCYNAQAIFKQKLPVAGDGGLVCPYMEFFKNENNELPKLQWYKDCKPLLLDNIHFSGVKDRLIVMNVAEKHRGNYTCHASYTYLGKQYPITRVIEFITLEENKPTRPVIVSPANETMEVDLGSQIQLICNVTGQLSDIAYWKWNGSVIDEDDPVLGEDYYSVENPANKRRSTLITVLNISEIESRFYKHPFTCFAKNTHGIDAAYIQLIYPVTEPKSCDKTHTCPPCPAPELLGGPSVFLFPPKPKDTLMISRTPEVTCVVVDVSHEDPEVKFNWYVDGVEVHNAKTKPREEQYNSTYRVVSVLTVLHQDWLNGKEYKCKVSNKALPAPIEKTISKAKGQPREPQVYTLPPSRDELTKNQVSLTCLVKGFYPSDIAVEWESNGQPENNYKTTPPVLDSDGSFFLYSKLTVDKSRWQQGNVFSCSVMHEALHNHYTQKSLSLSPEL
Procedure: (§1) A selection of IL-1R-I binding Z variants was subjected to an analysis of response against a dilution series of hIL-1R-1-Fc using ELISA as described above. The target protein hIL-1R-1-Fc was diluted stepwise 1:10 from 100 to 0.01 nM. As a background control, the Z variants were assayed with no target protein added. Obtained data was analyzed using GraphPad Prism 5 and non-linear regression, and the EC50 values (the half maximal effective concentration) were calculated.
as §1, with “calculated. A periplasmic extract with Z12967 (SEQ ID NO:9) was analyzed in parallel for signal comparison.” for “calculated.”
as §1, with “binding” for “binding Z variants”, “20” for “100”, “0.002” for “0.01”, “calculated. Periplasmic extracts with Z12967, Z16065 and Z16218 (corresponding to SEQ ID:9, 268 and 414, respectively) were analyzed in parallel for signal comparison. As negative control, a periplasmic extract of ABD001 was used.” for “calculated.”

[2] = His6-Z polypeptides binding to human IL-1R-I, Biacore, Table 19
[3] = His6-Z polypeptides binding to human IL-1R-I, Biacore, Table 19, read-out: KD
[4] = His6-Z polypeptides, 100, 10 and 1 nM (Example 5), read-out: KD

Row | Substance | koff (hIL-1R-I; [2]) | kon (hIL-1R-I; [2]) | Kd (hIL-1R-I; [3]) | Melting temperatures (Tm) ([1]; Table 21) | EC50 (hIL-1R-I-Fc) | further results
1 | Z15932: IL-1R-I binding Z variant (VDAKYAKEVEEAQMEIFILPNLTRKQYTAFIRKLLDDPSQSSELLSEAKKLNDSQAPK; Engineered IL-1R-I binding polypeptide) | 0.011 s⁻¹ | 1.8e+07 M⁻¹ s⁻¹ | 0.64 nM | 60 °C |  | 
2 | Z16062: IL-1R-I binding Z variant (VDAKYAKEIEEAQMEIFYLPNLTRKQYTAFIRKLFDDPSQSSELLSEAKKLNDSQAPK; Engineered IL-1R-I binding polypeptide) |  |  |  |  |  | Kd (hIL-1R-I; [4]): 0.44 nM; Melting temperatures (Tm) ([1]; Table 13): 54 °C
3 | Z16163: IL-1R-I binding Z variant (VDAKYAKEVERAQMEIFELPNLTRRQYTAFIRKLLDDPSQSSELLSEAKKLNDSQAPK; Engineered IL-1R-I binding polypeptide) |  |  |  |  |  | Kd (hIL-1R-I; [4]): 0.55 nM; Kd (hIL-1R-I; His6-tagged, 48, 12, 3 and 0.75 nM, comparison variants (Example 9), read-out: KD to human IL-1R-I): 0.76 nM; Melting temperatures (Tm) ([1]; Table 13): 57 °C
4 | Z16771: IL-1R-I binding Z variant (VDAKYAKEVEVAYMEIFQLPNLTRKQYTAFIRKLLDDPSQSSELLSEAKKLNDSQAPK; Engineered IL-1R-I binding polypeptide) |  |  |  |  | 0.24 nM | 
5 | Z17244: IL-1R-I binding Z variant (VDAKYAKEVEDAYFEIYRLPNLTRKQYTAFIRKLLDDPSQSSELLSEAKKLNDSQAPK; Engineered IL-1R-I binding polypeptide) |  |  |  |  | 0.42 nM | 
6 | Z17255: IL-1R-I binding Z variant (VDAKYAKEVEQAYYEIYALPNLTRKQYTAFIRKLLDDPSQSSELLSEAKKLNDSQAPK; Engineered IL-1R-I binding polypeptide) |  |  |  |  | 0.25 nM | 
7 | Z17257: IL-1R-I binding Z variant (VDAKYAKEVEEAYMEIYGLPNLTRKQYTAFIRKLLDDPSQSSELLSEAKKLNDSQAPK; Engineered IL-1R-I binding polypeptide) |  |  |  |  | 0.48 nM | 
8 | Z17269: IL-1R-I binding Z variant (VDAKYAKEVEEAYQEIFHLPNLTRKQYTAFIRKLLDDPSQSSELLSEAKKLNDSQAPK; Engineered IL-1R-I binding polypeptide) |  |  |  |  | 0.27 nM | 
9 | Z17270: IL-1R-I binding Z variant (VDAKYAKETEEAYFEIYRLPNLTRKQYTAFIRKLLDDPSQSSELLSEAKKLNDSQAPK; Engineered IL-1R-I binding polypeptide) |  |  |  |  | 0.3 nM | 
10 | Z17278: IL-1R-I binding Z variant (VDAKYAKEIERAYYEIYDLPNLTRKQYTAFIRKLLDDPSQSSELLSEAKKLNDSQAPK; Engineered IL-1R-I binding polypeptide) |  |  |  |  | 0.27 nM | 
11 | Z17279: IL-1R-I binding Z variant (VDAKYAKEVEDAYFEIYYLPNLTRKQYTAFIRKLLDDPSQSSELLSEAKKLNDSQAPK; Engineered IL-1R-I binding polypeptide) |  |  |  |  | 0.28 nM | 
12 | Z17288: IL-1R-I binding Z variant (VDAKYAKEADAAYFEIYHLPNLTRKQYTAFIRKLLDDPSQSSELLSEAKKLNDSQAPK; Engineered IL-1R-I binding polypeptide) |  |  |  |  | 0.42 nM | 
13 | Z17296: IL-1R-I binding Z variant (VDAKYAKEVETAYFEIYALPNLTRKQYTAFIRKLLDDPSQSSELLSEAKKLNDSQAPK; Engineered IL-1R-I binding polypeptide) |  |  |  |  | 0.32 nM | 
14 | Z17297: IL-1R-I binding Z variant (VDAKYAKEAYIAQMEIFGLPNLTRKQYTAFIRKLLDDPSQSSELLSEAKKLNDSQAPK; Engineered IL-1R-I binding polypeptide) |  |  |  |  | 0.24 nM | 
15 | Z18762 (VDAKYAKELEAIQMEIFRLPNLTRRQYTAFIRKLLDDPSQSSELLSEAKKLNDSQAPK; His6 tag; Engineered IL-1R-I binding polypeptide) | 0.0052 s⁻¹ | 4.2e+07 M⁻¹ s⁻¹ | 0.13 nM | 62 °C |  | 
16 | Z18817 (VDAKYAKEVEEIQMEIFRLPNLTRRQYTAFIRKLFDDPSQSSELLSEAKKLNDSQAPK; His6 tag; Engineered IL-1R-I binding polypeptide) | 0.0048 s⁻¹ | 2.8e+07 M⁻¹ s⁻¹ | 0.17 nM | 60 °C |  | 
17 | Z18823 (VDAKYAKETEEIQMEIFSLPNLTRRQYTAFIRKLLDDPSQSSELLSEAKKLNDSQAPK; His6 tag; Engineered IL-1R-I binding polypeptide) | 0.0018 s⁻¹ | 4.7e+06 M⁻¹ s⁻¹ | 0.38 nM | 52 °C |  | 
18 | Z18850 (VDAKYAKEIEEIQMEIFALPNLTRRQYTAFIRKLLDDPSQSSELLSEAKKLNDSQAPK; His6 tag; Engineered IL-1R-I binding polypeptide) | 0.0023 s⁻¹ | 1.3e+07 M⁻¹ s⁻¹ | 0.17 nM | 62 °C |  | 
19 | Z18853 (VDAKYAKEIEEIQMEIFYLPNLTRRQYTAFIRKLFDDPSQSSELLSEAKKLNDSQAPK; His6 tag; Engineered IL-1R-I binding polypeptide) | 0.003 s⁻¹ | 2.2e+07 M⁻¹ s⁻¹ | 0.14 nM | 59 °C |  | 
20 | Z18856 (VDAKYAKELEEIQMEIFHLPNLTRRQYTAFIRKLLDDPSQSSELLSEAKKLNDSQAPK; His6 tag; Engineered IL-1R-I binding polypeptide) | 0.0057 s⁻¹ | 4.6e+07 M⁻¹ s⁻¹ | 0.12 nM | 61 °C |  | 
